# Data from PMC6212790.
# The other results are listed elsewhere or left out. At the low end of the ranking the order means little.
# Target: T1, GST-Rok-C97-191 (UniProt O34857)
# T1 sequence: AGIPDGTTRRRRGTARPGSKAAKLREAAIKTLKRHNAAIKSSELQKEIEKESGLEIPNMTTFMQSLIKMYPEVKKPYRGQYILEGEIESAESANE
# Assay: protein binding microarray;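 note: rank score from −0.5 (least bound) to 0.5 (best bound)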
# Conditions: Rok is a gene silencer of Bacillus subtilis; high values mean tight binding; most listed sequences are background and not binding sites; double strand, one strand shown
row,Sequence,binding signal [E-score]
1,AACCGCCC,-0.268
2,CACGGTCC,-0.359
3,CGACTCAC,-0.189
4,CAACTCAA,0.0366
5,CGCGCGTC,-0.236
6,ACTGCAGC,-0.0882
7,AGGGCTTA,-0.106
8,CGGTTACA,-0.149
9,ACGTACTC,0.0226
10,GGGCGCGA,-0.262
11,CGCGTACC,-0.0539
12,GCATATGC,0.063
13,ACGAGTAT,0.2
14,TCCGCAGA,-0.0682
15,CTTCAGGA,0.0175
16,CTTATGAA,0.127
17,AACGCCAA,-0.0358
18,ATTCATCC,-0.104
19,CACCAACG,-0.0804
20,AACACGTA,-0.0194
21,ATTGAAAA,-0.122
22,AACTGTAG,0.27
23,AGGTGCCC,-0.242
24,ACGAAATC,0.0634
25,AATTAATC,0.24

row,Sequence,binding signal [E-score]
1,AGCAACGG,0.18
2,ATCCATCA,-0.177
3,AGAAAACG,-0.0426
4,ACGAGGAC,-0.298
5,GCCAACAA,-0.106
6,CGAACCAG,-0.14
7,GCCACTCA,-0.165
8,GCTCCTGA,-0.152
9,GCGGGAAA,-0.137
10,ACTGGGAT,0.095
11,CAGCATGG,-0.227
12,ACCAGGCT,-0.11
13,GGGGGAAC,-0.126
14,CACCACTG,-0.257
15,AGTTCCGG,0.103
16,AAAAGGGC,-0.186
17,ACCTCGTG,-0.0186
18,AGAAGCGA,-0.104
19,CAGACCAA,-0.177
20,ATAGTGGC,0.0849
21,ATTGGCGC,-0.0813
22,CGGGATGC,-0.0981
23,AACGTCTC,-0.114
24,TCCGGAGA,-0.0285
25,AGGCCCGG,-0.36

row,Sequence,binding signal [E-score]
1,TGACACAA,-0.102
2,ATCAAAAC,0.0221
3,ACAGGAAG,-0.112
4,AGAGTGAG,-0.159
5,CCCTGTGA,-0.371
6,AATTACAA,0.251
7,GTACACAA,0.235
8,TGATTGCA,0.0542
9,ATTACCAG,0.222
10,GCCATCAA,-0.133
11,GTTCCTTA,-0.125
12,GTAGGAAA,0.255
13,CGCGAATC,-0.0806
14,CATAGCCG,-0.0886
15,AGGATTCG,-0.0164
16,GGCAGAGA,-0.173
17,CTCTGCGA,-0.127
18,ATCGCTTC,0.0344
19,GTTTCAAA,-0.0851
20,ACTACCGG,0.185
21,CTCGGAAA,0.0625
22,AGGTCCCC,-0.331
23,AAATAGCA,0.0458
24,CCGCAAAA,-0.142
25,ACGACTAG,0.0982

row,Sequence,binding signal [E-score]
1,AACACCTA,0.129
2,AGATGAGA,0.041
3,ATCCGCAT,0.0779
4,ATGTACGG,0.123
5,TCTTACAA,0.00543
6,GTATCGAC,0.115
7,CGTCAACA,-0.0547
8,GGACTCGA,-0.263
9,ACTTGTAG,0.169
10,ACTCAGCG,-0.103
11,AACGGTGC,-0.117
12,TCTAAGAA,0.0112
13,CGCACGTC,-0.0426
14,CATTAGGA,-0.0893
15,GGAGCCAA,-0.252
16,AGTTGGAG,-0.16
17,CTCTATGC,-0.0298
18,ATACACCC,0.196
19,TCCGGTAA,0.0864
20,GCCTTAAC,-0.123
21,AGTCCAAA,0.0168
22,GAGCGGAC,-0.221
23,CCCAGCCC,-0.431
24,CCAGGTCC,-0.244
25,GATTAATC,0.0344

row,Sequence,binding signal [E-score]
1,GTGTTTAA,0.0401
2,CAAGGTCA,-0.126
3,AGCCGCTA,-0.00769
4,CATGTACA,0.317
5,CGAGAAGA,-0.0403
6,CGGTGAGA,-0.114
7,AGGTTGAC,-0.092
8,GACTTCCA,0.197
9,CGTATTAG,-0.0272
10,GCCCTTCA,-0.205
11,TCGATAAA,0.205
12,GATCTTTA,0.0566
13,ATCCAAAT,0.0489
14,GCGTGATA,0.108
15,AAATAGGT,0.314
16,AATTTCCG,0.0324
17,AGGCCCTA,-0.204
18,AGCCCGGG,-0.179
19,GCGCCTTA,-0.24
20,ATACATCG,0.17
21,ATGGATTG,-0.219
22,ACGGACTG,-0.123
23,ATCGGTGG,-0.0827
24,TGCGTTAA,-0.134
25,TCCACCGA,-0.173

row,Sequence,binding signal [E-score]
1,TACGAGGA,-0.119
2,ACAGATGT,-0.0201
3,AGCAGAGG,-0.215
4,GACCAACA,-0.0266
5,AGCACGCA,-0.111
6,AAACGACA,0.141
7,ACTACGAC,0.0766
8,ATCGTGAC,-0.179
9,CTGTGCTA,-0.119
10,CGATAGCC,-0.0659
11,CCGACTGA,-0.0764
12,AACTTTAC,0.0803
13,ATCAGGTC,0.0134
14,GGCGGCAA,-0.246
15,CAGTTCTA,0.271
16,ATCCGACC,-0.323
17,CTTAACCA,-0.0422
18,TTTAAAAA,0.00271
19,ACACAAAG,0.0993
20,ACGACGAT,0.0985
21,CACTAAGG,-0.084
22,GCTCGGCA,-0.219
23,CATATCTA,0.34
24,ACCTGCTA,-0.227
25,ACGTTTCT,0.18

row,Sequence,binding signal [E-score]
1,AAGCTACC,0.362
2,CTCGGCAG,-0.0953
3,AAATGGAT,0.226
4,AAGAGTTC,-0.0763
5,AGAGACTC,-0.16
6,ATTTGCAC,0.135
7,CCCTATGC,-0.104
8,CATCGCAA,0.064
9,ACTGGGGA,-0.208
10,AGCAGGGC,-0.15
11,CCTGAGCA,-0.144
12,CCAACGCA,-0.181
13,CGGAGTGA,-0.189
14,GAAGTGGC,-0.132
15,CAGTGGGC,-0.187
16,CCCAAGGC,-0.218
17,AGTTAAAA,0.324
18,ACAGACCA,-0.0557
19,ATACAGAA,0.13
20,CAAAATAA,0.0411
21,ATTAACAC,0.00323
22,TGAAGCCA,-0.143
23,CTAAGTGA,-0.000539
24,AGAGACGC,-0.162
25,CTCTGAGA,0.0417

row,Sequence,binding signal [E-score]
1,GGGGTACC,-0.307
2,AGGGGTTA,0.0414
3,AAAGGAGC,-0.143
4,AAGGGCAC,-0.165
5,AACCGTTA,0.14
6,CGCAGTTC,-0.224
7,ATGACTAG,0.108
8,CGGCGCAA,-0.202
9,GGCGGCCA,-0.298
10,GTGTTTTA,0.173
11,ATACAACG,0.172
12,CCTGCATA,0.0203
13,AGAGGGAC,-0.178
14,TCACTCAA,0.135
15,CAGACGTC,-0.0671
16,ATGTCAAC,-0.000706
17,ACGTACCA,0.18
18,CAACGTAG,0.185
19,ACGGCGAA,-0.0487
20,AGAAATCA,0.222
21,CTAACAAG,-0.0537
22,CCTTGTGA,-0.104
23,GGATCACC,-0.00901
24,CTAAACCA,0.13
25,TCCATCGA,-0.208

row,Sequence,binding signal [E-score]
1,ATATCTTG,0.0605
2,GTCTTCAA,-0.0762
3,AGCTACCA,0.35
4,GACTTCAA,-0.192
5,CAATCAAC,0.11
6,AGCCCTAG,-0.244
7,CATGTTTA,-0.151
8,AGACGATA,0.0652
9,CCTTATGA,0.0321
10,TGCCGACA,-0.157
11,ATGTACCG,0.305
12,CAGGATAG,0.0399
13,GCCTTTGA,-0.0616
14,CCGTATGC,-0.19
15,CTACTCAA,0.000659
16,CCGGAGGA,-0.252
17,GAGGCCTC,-0.191
18,AGTCAAAG,-0.141
19,CAGTGGCA,-0.25
20,AATGGTCG,-0.192
21,TCTTTAAA,0.0662
22,ACCCTCCG,-0.293
23,GAAATATA,0.305
24,AGAGCACA,0.0298
25,AGTACCAA,-0.00151

row,Sequence,binding signal [E-score]
1,GTGATCAA,-0.0649
2,CCGAGCAG,-0.0217
3,GAAGACCA,-0.0771
4,CGCTGAGC,-0.0805
5,ACACTGAC,-0.0517
6,TAACCCAA,-0.0144
7,AGTGCTTC,-0.27
8,AGTCTCCA,-0.0736
9,ATAGCTAA,0.294
10,ATTGTGTA,0.258
11,GAAGTTCA,-0.0152
12,AGATGACT,0.0396
13,CACGGAAC,-0.147
14,ACGAGCGT,-0.0934
15,CGTTCGTC,-0.214
16,GACTCGAC,-0.137
17,GGCTCACA,-0.177
18,GCCATCAC,-0.257
19,AGCGTAAT,0.2
20,ATGTAATA,0.32
21,CGCTTACA,-0.0304
22,TCCAGACA,-0.188
23,CGCCCCCC,-0.434
24,ACGTGTGG,-0.0155
25,CCCGGTAG,-0.134

row,Sequence,binding signal [E-score]
1,CACTTCCA,-0.0767
2,AGGAGGTG,-0.177
3,GGCGCCCA,-0.207
4,GTCGGCTA,0.011
5,CACCAAGG,-0.286
6,CCACCTAA,-0.0523
7,AACCTAAA,0.0757
8,GCCAGAAC,-0.0329
9,ATTCTTAA,0.0601
10,CGAAGTAA,0.0919
11,TCTTTTCA,-0.046
12,TATCTAGA,0.159
13,AGTAGTCG,0.17
14,AATCGACA,-0.0613
15,AGGTGTAA,0.217
16,CAGCTGTC,0.00473
17,GATTCTAA,0.086
18,GACCGCGC,-0.263
19,CACGGGTC,-0.133
20,TGTCACAA,-0.0266
21,CCCAGGGC,-0.207
22,ACCTGAAT,0.131
23,CCCGCGCC,-0.255
24,ACAGGGCT,-0.097
25,AACTATGC,0.179

row,Sequence,binding signal [E-score]
1,CGGTCCGA,-0.0983
2,CGTCCATA,-0.238
3,GGGGCGGA,-0.227
4,CATGTCAC,-0.0201
5,AGTCTGCA,-0.111
6,CTCCAGGC,-0.285
7,CAGCGGCA,-0.181
8,CCCCTATA,-0.0508
9,GCCCCGTA,-0.169
10,GGCATACA,0.233
11,GTCTTATA,0.152
12,ACTTCGCT,0.104
13,AGTCGCAT,-0.0688
14,AGAAGAAC,0.039
15,ATGGCTTC,-0.163
16,AACCGCCG,-0.18
17,CGCAGGGA,-0.128
18,AAGAGGAT,-0.139
19,AAGAACTA,0.241
20,AATTCGGC,-0.0445
21,ATTTAATG,0.105
22,AAACAACT,0.174
23,CAGAGACA,-0.153
24,AAAACATC,0.0819
25,GCCCTCAA,-0.185

row,Sequence,binding signal [E-score]
1,GATCTAGA,0.194
2,GATCCTGA,-0.134
3,ATCTTCAT,0.204
4,TCAGAGCA,-0.143
5,GCCGTACA,-0.0375
6,CCGACGCA,-0.212
7,CTCATGCA,-0.182
8,AAGCTGAC,-0.22
9,CGTCCCCA,-0.225
10,AAGGTCTA,-0.133
11,GTGCGCAA,-0.0525
12,ATACATGG,0.117
13,AAACGTTA,0.0818
14,CCTAATCA,0.011
15,CCATCACA,-0.258
16,GACAGCCC,-0.305
17,GGTTTAAC,-0.0571
18,CAGGGACG,-0.15
19,GCTCTAGA,-0.233
20,CCAACCTA,-0.0204
21,AATCTTGT,-0.00621
22,GCAGGTAA,-0.0453
23,CAACATCA,-0.0082
24,CATTCACA,-0.0242
25,ACCCTCGA,0.0492

row,Sequence,binding signal [E-score]
1,ATCTTAGC,0.21
2,CGGCGGCC,-0.283
3,AGCGAATG,-0.0139
4,AACTCTGA,0.00111
5,CGAAGGCC,-0.185
6,CACTTCTA,0.036
7,CAGCTCTA,-0.068
8,CACGCGAG,-0.0781
9,TGGCTGAA,0.00639
10,ACTAACAC,0.0585
11,CCTGTACG,-0.284
12,ACAGAGCA,-0.126
13,TAAATAAA,0.162
14,AGCTAACT,0.142
15,CGAGTTGC,0.179
16,CGCAGCCC,-0.273
17,ACTGGCTA,-0.109
18,CTGACTCC,-0.282
19,ACTTATTC,0.115
